# Results as given in PMC4336329 (PLoS ONE, 2015).
# Among all 310,000 compounds or so, about 14,000 (4.5%) showed an effect of 50% or more. Effects have a minus sign here. This is one part of the list.
# Biological target: human ether-à-go-go-related gene (hERG) potassium channel (human, UniProt Q12809)
# Test: primary screen, population patch clamp on CHO cells stably expressing hERG
# 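Further: peak tail current of the secondary pulse compared with the same well before compound.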
# human ether-à-go-go-related gene (hERG) potassium channel, sequence (Q12809 whole entry, looked up): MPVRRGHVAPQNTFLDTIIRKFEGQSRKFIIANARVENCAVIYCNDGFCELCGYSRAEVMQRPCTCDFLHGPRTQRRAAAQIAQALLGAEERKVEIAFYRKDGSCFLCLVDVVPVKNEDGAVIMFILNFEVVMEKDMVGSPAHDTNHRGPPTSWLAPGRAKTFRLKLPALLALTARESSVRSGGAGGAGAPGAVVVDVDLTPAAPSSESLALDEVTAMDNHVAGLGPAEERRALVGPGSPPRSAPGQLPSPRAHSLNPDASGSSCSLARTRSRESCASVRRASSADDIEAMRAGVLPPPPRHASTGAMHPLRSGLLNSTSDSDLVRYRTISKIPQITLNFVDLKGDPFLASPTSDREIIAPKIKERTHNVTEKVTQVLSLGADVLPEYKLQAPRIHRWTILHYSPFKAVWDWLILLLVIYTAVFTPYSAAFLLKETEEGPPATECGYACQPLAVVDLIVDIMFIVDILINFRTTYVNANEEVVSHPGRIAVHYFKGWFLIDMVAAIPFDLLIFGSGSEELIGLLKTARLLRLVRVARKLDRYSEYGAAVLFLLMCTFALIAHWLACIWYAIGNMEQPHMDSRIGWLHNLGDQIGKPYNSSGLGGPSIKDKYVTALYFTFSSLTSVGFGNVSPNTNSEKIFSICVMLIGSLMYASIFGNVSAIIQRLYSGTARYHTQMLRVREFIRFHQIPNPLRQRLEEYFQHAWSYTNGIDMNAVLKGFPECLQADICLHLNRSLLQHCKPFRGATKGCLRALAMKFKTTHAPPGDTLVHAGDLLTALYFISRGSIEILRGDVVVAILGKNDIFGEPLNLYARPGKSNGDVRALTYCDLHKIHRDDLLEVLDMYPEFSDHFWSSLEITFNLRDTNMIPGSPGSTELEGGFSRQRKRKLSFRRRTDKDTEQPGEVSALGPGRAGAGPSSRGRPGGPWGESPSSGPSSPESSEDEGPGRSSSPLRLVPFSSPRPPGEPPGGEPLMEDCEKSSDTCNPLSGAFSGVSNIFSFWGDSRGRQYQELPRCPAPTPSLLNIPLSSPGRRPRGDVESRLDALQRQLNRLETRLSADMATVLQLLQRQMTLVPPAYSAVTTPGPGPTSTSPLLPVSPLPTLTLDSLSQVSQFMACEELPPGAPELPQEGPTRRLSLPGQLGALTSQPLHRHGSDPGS
row,Compound,"hERG current change (%, negative = inhibition) at 10uM"
1,Cc1sc2nc(C(C)C)nc(SCC(=O)NC3CC3)c2c1C,18.4%
2,CC(C)Nc1nc(NC(C)C)nc(N(C)N)n1,-6.73%
3,CCc1nnc(NC(=O)CSc2nncc(=O)n2N)s1,22.4%
4,COc1ccc(NC(=O)CCCc2ccc(OC)c(C)c2)cc1,3.93%
5,O=C1COc2ccc(C(=O)COC(=O)c3ccc(Cl)cc3[N+](=O)[O-])cc2N1,-34%
6,COc1ccc(CN2CCN(C(=O)c3cccs3)CC2)cc1Br,-24.4%
7,COc1ccccc1NC(=O)CSc1nnc(CCC(=O)Nc2ccccc2F)n1C,9.86%
8,Cl.O=C(CNCCO)NC12CC3CC(CC(C3)C1)C2,13.2%
9,CCC(C)(C)NC(=O)CN(C(=O)c1snc(C(N)=O)c1N)c1ccc2nc(C)sc2c1,-7.15%
10,C/C(Cl)=C\COc1cc(C)nc2c(Br)cccc12,10.7%
11,CC1CCCCN1C(=O)CSc1nnc(CSc2ncccn2)n1C (stereo not drawn),3.86%
12,O=C(NCC(F)(F)F)Nc1ccccn1,-1.8%
13,CN(C)NC(=S)NC1CC2CCC1C2 (stereo not drawn),8.87%
14,CCCOc1cccc(C(=O)N/N=C/c2ccoc2)c1,4.65%
15,COc1ccc(OC)c(/C=N/NC(=O)c2[nH]ncc2Br)c1,9.01%
16,Cc1ccc(S(=O)(=O)NCC(=O)OCC(=O)N2CCN(C(=O)c3ccco3)CC2)cc1C,-10.1%
17,CC(OC(=O)CCc1c[nH]c2ccccc12)C(=O)c1ccccc1 (stereo not drawn),-17.8%
18,CC(C(=O)OCC(=O)Nc1cccc(S(=O)(=O)N(C)C)c1)N1C(=O)c2ccccc2C1=O (stereo not drawn),-82.8%
19,COCC(=O)N(Cc1nc2sc(C)c(C)c2c(=O)[nH]1)C1CCCCC1,-6.56%
20,COc1ccc(CCn2c(NCc3ccco3)nc3c2c(=O)[nH]c(=O)n3C)cc1,5.73%
21,O=C(O)c1ccccc1C(=O)Nc1cc(-c2ccccc2)[nH]n1,18%
22,Cc1ccc(-c2nc(CSCC(=O)Nc3cc(C)on3)c(C)o2)cc1,5.39%
23,CN(C)S(=O)(=O)N(CC(=O)N1CCN(c2ccccc2F)CC1)c1ccccc1,2.46%

row,Compound,"hERG current change (%, negative = inhibition) at 10uM"
1,Fc1ccc(CSc2nnc(-c3ccncc3)o2)cc1,13.7%
2,CC(=O)c1ccc2oc3ccccc3c(=O)c2c1,7.46%
3,O=C(N/N=C/c1ccncc1)c1cccc(S(=O)(=O)Nc2ccc(Cl)cc2)c1,-0.329%
4,Cc1ccc(OCCNC(=O)CCc2nc3sc4c(c3c(=O)[nH]2)CCCC4)cc1,14%
5,C/C=C/c1ccc(OCC(=O)Nc2ccc(OC)c(OC)c2)c(OC)c1,19.8%
6,O=S(=O)(c1ccccc1Cl)N1CCC(O)(c2ccc3c(c2)OCO3)CC1,-24.8%
7,Cc1ccc(S(=O)(=O)c2c[nH]c3ccc(C)cc3c2=O)cc1,14.5%
8,COc1ccc(N(CC(=O)NCCSC2CCCCC2)S(=O)(=O)c2ccc(C)cc2)cc1,16.7%
9,CC(=S)/C=C1\Sc2ccccc2N1C,7.05%
10,COC(=O)Cn1nc(-c2ccc(C)cc2)c2ccccc2c1=O,7.66%
11,COc1ccc(CCNC(=O)CCc2cn(C)c3ccccc23)c(OC)c1OC,-2.11%
12,CC1Cc2ccccc2N1C(=O)c1ccc2snnc2c1 (stereo not drawn),-17%
13,COc1cccc(-c2nc(CS(=O)(=O)CC(=O)NCc3ccccc3OC)c(C)o2)c1,1.7%
14,CC(C)n1cnnc1SCC(=O)NC(=O)c1ccccc1,-1.1%
15,Cn1nc(C(=O)N2CCN(c3ccc([N+](=O)[O-])cc3)CC2)c2c1-c1ccccc1S(=O)(=O)C2,-31.4%
16,Cc1cc(C=C(C#N)C#N)c(C)n1-c1ccccc1,2.01%
17,O=C(Nc1ccc(S(=O)(=O)N2CCOCC2)cc1)c1ccc(F)cc1,-6.51%
18,N#CCSc1nnc(-c2ccccc2)c(-c2ccccc2)n1,-11.4%
19,COc1cccc(CNCc2cccnc2)c1OCc1ccccc1.Cl,19.3%
20,O=C(O)Cc1ccc(NC(=O)Nc2ccc3c(c2)OCO3)cc1,18.5%
21,Cc1ccc(S(=O)(=O)CCC(=O)Nc2ccc(F)cc2)cc1,2.99%
22,COc1cc(C)c(C)cc1S(=O)(=O)N1CCN(Cc2ccc3c(c2)OCO3)CC1,-6.56%
